Results: ChEMBL document CHEMBL3286308, “Potent and orally efficacious bisthiazole-based histone deacetylase inhibitors” (ACS Med Chem Lett, 2014)

Experiments:
[1] = in vivo; settings: KM, mouse, po, 20 mg/kg
[2] = in vivo; settings: KM, mouse, po, 20 mg/kg; remark: listed apart in the source
[3] = molecular target: T1, Protein deacetylase HDAC6 (Homo sapiens, UniProt Q9UBN7)
T1 sequence (Q9UBN7 whole entry): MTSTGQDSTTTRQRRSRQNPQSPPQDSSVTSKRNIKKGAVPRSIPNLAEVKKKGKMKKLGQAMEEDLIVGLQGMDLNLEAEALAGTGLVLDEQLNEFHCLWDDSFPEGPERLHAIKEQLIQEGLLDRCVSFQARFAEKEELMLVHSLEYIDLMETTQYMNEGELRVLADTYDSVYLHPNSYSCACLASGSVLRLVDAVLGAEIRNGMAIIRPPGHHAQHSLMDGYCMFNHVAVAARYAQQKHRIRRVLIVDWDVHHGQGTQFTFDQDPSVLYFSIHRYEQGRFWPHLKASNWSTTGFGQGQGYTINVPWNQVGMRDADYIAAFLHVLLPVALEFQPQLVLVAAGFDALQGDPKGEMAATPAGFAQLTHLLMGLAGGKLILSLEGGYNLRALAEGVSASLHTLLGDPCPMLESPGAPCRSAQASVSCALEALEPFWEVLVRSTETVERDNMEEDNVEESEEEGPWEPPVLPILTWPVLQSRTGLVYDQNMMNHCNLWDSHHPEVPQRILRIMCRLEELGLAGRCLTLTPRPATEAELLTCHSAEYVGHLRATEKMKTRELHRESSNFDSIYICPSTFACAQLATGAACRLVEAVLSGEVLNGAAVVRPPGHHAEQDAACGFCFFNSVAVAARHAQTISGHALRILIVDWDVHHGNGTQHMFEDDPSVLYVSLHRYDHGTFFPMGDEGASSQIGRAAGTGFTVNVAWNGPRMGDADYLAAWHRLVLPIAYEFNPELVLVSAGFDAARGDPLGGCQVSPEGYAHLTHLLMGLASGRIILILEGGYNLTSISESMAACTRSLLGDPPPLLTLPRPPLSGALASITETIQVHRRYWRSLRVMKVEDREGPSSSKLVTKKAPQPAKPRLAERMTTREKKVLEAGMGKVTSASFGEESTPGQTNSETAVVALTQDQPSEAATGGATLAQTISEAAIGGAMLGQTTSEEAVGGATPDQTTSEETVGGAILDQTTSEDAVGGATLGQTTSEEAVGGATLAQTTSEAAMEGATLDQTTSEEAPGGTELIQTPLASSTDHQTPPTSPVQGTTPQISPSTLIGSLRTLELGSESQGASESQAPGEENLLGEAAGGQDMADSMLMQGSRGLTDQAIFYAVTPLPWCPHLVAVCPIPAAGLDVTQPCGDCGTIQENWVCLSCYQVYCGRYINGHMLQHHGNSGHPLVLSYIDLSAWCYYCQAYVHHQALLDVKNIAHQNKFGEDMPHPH

[4] = molecular target: Histone deacetylase 1 (Homo sapiens, UniProt Q13547)
[5] = molecular target: Histone deacetylase 3 (Homo sapiens, UniProt O15379)
Sequence of Histone deacetylase 3 (O15379 whole entry): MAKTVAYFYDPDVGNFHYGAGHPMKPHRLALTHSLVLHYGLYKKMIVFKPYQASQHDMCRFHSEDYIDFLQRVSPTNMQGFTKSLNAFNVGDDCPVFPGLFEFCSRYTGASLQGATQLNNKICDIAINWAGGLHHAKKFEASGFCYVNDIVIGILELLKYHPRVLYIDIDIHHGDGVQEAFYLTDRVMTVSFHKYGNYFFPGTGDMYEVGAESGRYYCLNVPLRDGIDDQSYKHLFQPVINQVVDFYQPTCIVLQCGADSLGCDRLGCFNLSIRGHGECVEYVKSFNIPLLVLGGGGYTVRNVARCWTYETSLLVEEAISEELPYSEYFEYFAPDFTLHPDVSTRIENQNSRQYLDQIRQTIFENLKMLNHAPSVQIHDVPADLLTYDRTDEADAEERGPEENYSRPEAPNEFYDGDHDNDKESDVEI

Sequence of Histone deacetylase 1 (Q13547 whole entry): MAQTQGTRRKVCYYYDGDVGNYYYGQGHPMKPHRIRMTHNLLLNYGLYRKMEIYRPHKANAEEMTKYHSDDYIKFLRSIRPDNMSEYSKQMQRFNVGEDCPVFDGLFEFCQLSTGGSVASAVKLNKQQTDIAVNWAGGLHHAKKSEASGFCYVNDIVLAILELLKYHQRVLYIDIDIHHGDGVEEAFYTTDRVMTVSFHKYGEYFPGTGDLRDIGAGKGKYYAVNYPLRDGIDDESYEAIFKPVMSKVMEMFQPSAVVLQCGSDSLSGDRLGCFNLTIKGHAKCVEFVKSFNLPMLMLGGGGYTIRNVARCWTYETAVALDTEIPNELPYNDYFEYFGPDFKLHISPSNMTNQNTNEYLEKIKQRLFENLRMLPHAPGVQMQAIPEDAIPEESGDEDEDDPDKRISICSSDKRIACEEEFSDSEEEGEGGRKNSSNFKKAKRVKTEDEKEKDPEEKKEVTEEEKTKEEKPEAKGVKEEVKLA

Work on `O=C(CCCCNC(=O)c1nc(-c2nccs2)sc1C1CC1)NO` [BISTHIANOSTAT] yielded a Cmax [1] of 7040 ng/mL and a bioavailability [2] of 119%.

With `CC(C)=Cc1sc(-c2nccs2)nc1C(=O)NCCCCC(=O)NO` the IC50 [3] was 0.18 µM.

In the case of `CCc1sc(-c2nccs2)nc1C(=O)NCCCCC(=O)NO`, the IC50 [4] is reported as 0.03 µM.

`CC(C)Cc1sc(-c2nccs2)nc1C(=O)NCCCCC(=O)NO` showed an IC50 [4] of 0.05 µM.

`CC(C)/C=C/c1sc(-c2nccs2)nc1C(=O)NCCCCC(=O)NO` gave an IC50 [4] of 0.01 µM.

`CCCCCCCC(=O)SCC/C=C/[C@@H]1CC(=O)NCc2nc(cs2)-c2nc(cs2)C(=O)N[C@@H](C(C)C)C(=O)O1` showed an IC50 [5] of 16.8 µM and an IC50 [3] of 14.7 µM.

Work on `CCCCCCCC(=O)SCC/C=C/[C@@H]1CC(=O)NCc2nc(cs2)C2=N[C@@](C)(CS2)C(=O)N[C@@H](C(C)C)C(=O)O1` [LARGAZOLE] yielded an IC50 [5] of 0.245 µM and an IC50 [3] of 11.5 µM.
